# The supplement of paper PMC8728848
# This is one part of the list.
# Assays:
# Test in all cases: glycan array binding signal (z-score within array); higher = stronger binding
# Conditions in all cases: glycan notation: IUPAC condensed, linker removed
# [1] = target: Gal(b1-4)GlcNAc(b1-6)GalNAc
# Procedure, shortened: (§1)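 Columns mapping to the same glycan were averaged after glycan names were converted to IUPAC-condensed notation. The data come from 3228 arrays in the Consortium for Functional Glycomics database, limited to those with an available protein sequence. Binding is reported as a within-array Z-score averaged across arrays of one protein sequence and across linkers.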
# [2] = target: Gal(b1-4)GlcNAc(b1-6)[Gal(b1-3)]GalNAc
# Procedure, shortened: as §1
# [3] = target: Gal(b1-4)GlcNAc(b1-6)[Gal(b1-4)GlcNAc(b1-3)]GalNAc
# Procedure, shortened: as §1
# Gal(b1-4)GlcNAc6P = target: Gal(b1-4)GlcNAc6P
# Procedure, shortened: as §1
# Gal(b1-6)Gal = target: Gal(b1-6)Gal
# Procedure, shortened: as §1
# Gal3S(b1-3)GalNAc = target: Gal3S(b1-3)GalNAc
# Procedure, shortened: as §1
# Gal3S(b1-3)GlcNAc = target: Gal3S(b1-3)GlcNAc
# Procedure, shortened: as §1
# [4] = target: Gal3S(b1-3)[Fuc(a1-4)]GlcNAc
# Procedure, shortened: as §1
# Gal3S(b1-4)Glc = target: Gal3S(b1-4)Glc
# Procedure, shortened: as §1
# Gal3S(b1-4)Glc6S = target: Gal3S(b1-4)Glc6S
# Procedure, shortened: as §1
# Gal3S(b1-4)GlcNAc = target: Gal3S(b1-4)GlcNAc
# Procedure, shortened: as §1
# Gal3S(b1-4)GlcNAc6S = target: Gal3S(b1-4)GlcNAc6S
# Procedure, shortened: as §1
# [5] = target: Gal3S(b1-4)[Fuc(a1-3)]Glc
# Procedure, shortened: as §1
# [6] = target: Gal3S(b1-4)[Fuc(a1-3)]Glc6S
# Procedure, shortened: as §1
# [7] = target: Gal3S(b1-4)[Fuc(a1-3)]GlcNAc
# Procedure, shortened: as §1
# [8] = target: Gal3S(b1-4)[Fuc(a1-3)]GlcNAc6S
# Procedure, shortened: as §1
# Gal3S4S(b1-4)GlcNAc = target: Gal3S4S(b1-4)GlcNAc
# Procedure, shortened: as §1
# Gal3S6S(b1-4)GlcNAc = target: Gal3S6S(b1-4)GlcNAc
# Procedure, shortened: as §1
# Gal3S6S(b1-4)GlcNAc6S = target: Gal3S6S(b1-4)GlcNAc6S
# Procedure, shortened: as §1
# Gal4S(b1-4)GlcNAc = target: Gal4S(b1-4)GlcNAc
# Procedure, shortened: as §1
# Gal4S6S(b1-4)GlcNAc = target: Gal4S6S(b1-4)GlcNAc
# Procedure, shortened: as §1
# Gal6P(b1-4)GlcNAc = target: Gal6P(b1-4)GlcNAc
# Procedure, shortened: as §1
# Gal6S(b1-3)GlcNAc = target: Gal6S(b1-3)GlcNAc
# Procedure, shortened: as §1
# Gal6S(b1-3)GlcNAc6S = target: Gal6S(b1-3)GlcNAc6S
# Procedure, shortened: as §1
# Gal6S(b1-4)Glc = target: Gal6S(b1-4)Glc
# Procedure, shortened: as §1
# Gal6S(b1-4)Glc6S = target: Gal6S(b1-4)Glc6S
# Procedure, shortened: as §1
# Gal6S(b1-4)GlcNAc = target: Gal6S(b1-4)GlcNAc
# Procedure, shortened: as §1
# Gal6S(b1-4)GlcNAc6S = target: Gal6S(b1-4)GlcNAc6S
# Procedure, shortened: as §1
# GalNAc(a1-3)Gal = target: GalNAc(a1-3)Gal
# Procedure, shortened: as §1
# GalNAc(a1-3)GalNAc = target: GalNAc(a1-3)GalNAc
# Procedure, shortened: as §1
# [9] = target: GalNAc(a1-3)GalNAc(a1-3)Gal(a1-4)Gal(b1-4)GlcNAc
# Procedure, shortened: as §1
# [10] = target: GalNAc(a1-3)GalNAc(b1-3)Gal(a1-4)Gal(b1-4)Glc
# Procedure, shortened: as §1
# [11] = target: GalNAc(a1-3)GalNAc(b1-3)Gal(a1-4)Gal(b1-4)GlcNAc
# Procedure, shortened: as §1
# GalNAc(b1-3)Gal = target: GalNAc(b1-3)Gal
# Procedure, shortened: as §1
# [12] = target: GalNAc(b1-3)Gal(a1-4)Gal(b1-4)GlcNAc
# Procedure, shortened: as §1
# [13] = target: GalNAc(b1-3)Gal(a1-4)Gal(b1-4)GlcNAc(b1-3)Gal(b1-4)Glc
# Procedure, shortened: as §1
# [14] = target: GalNAc(b1-3)Gal(a1-6)Gal(b1-4)Glc
# Procedure, shortened: as §1
# GalNAc(b1-3)GalNAc = target: GalNAc(b1-3)GalNAc
# Procedure, shortened: as §1
binder,measurement,setting,value
PpFlo1 (Pichia pastoris) (protein) MGSSHHHHHHSSGLVPRGSHMQESGDGDISDSAYACDIDATRYDGFNATIYEFQPGDGRLTRDPVFMSTGYLNRTQLHSITGVTDPGFSIYTPGVPTTTLYGIPNVNWENLLLELKGYFRAEVSGDYGLSLRNIDDSAILFFGKETAFQCCNENSISNEASTDYSLFTIFRQEGDETTNLDSFTYTQYLEAGKYYPVRTFFVNIERHAVFNFTMTLPDGTELTDFHNYIYQFGALDEEQCQA,glycan array binding signal (z-score),[1],0.212
same,glycan array binding signal (z-score),[2],-0.175
same,glycan array binding signal (z-score),[3],0.113
same,glycan array binding signal (z-score),Gal(b1-4)GlcNAc6P,0.451
same,glycan array binding signal (z-score),Gal(b1-6)Gal,-0.157
same,glycan array binding signal (z-score),Gal3S(b1-3)GalNAc,-0.546
same,glycan array binding signal (z-score),Gal3S(b1-3)GlcNAc,0.113
same,glycan array binding signal (z-score),[4],-0.383
same,glycan array binding signal (z-score),Gal3S(b1-4)Glc,-0.403
same,glycan array binding signal (z-score),Gal3S(b1-4)Glc6S,0.353
same,glycan array binding signal (z-score),Gal3S(b1-4)GlcNAc,0.158
same,glycan array binding signal (z-score),Gal3S(b1-4)GlcNAc6S,0.164
same,glycan array binding signal (z-score),[5],0.052
same,glycan array binding signal (z-score),[6],0.934
same,glycan array binding signal (z-score),[7],0.013
same,glycan array binding signal (z-score),[8],-0.354
same,glycan array binding signal (z-score),Gal3S4S(b1-4)GlcNAc,-0.182
same,glycan array binding signal (z-score),Gal3S6S(b1-4)GlcNAc,0.214
same,glycan array binding signal (z-score),Gal3S6S(b1-4)GlcNAc6S,1.38
same,glycan array binding signal (z-score),Gal4S(b1-4)GlcNAc,-0.487
same,glycan array binding signal (z-score),Gal4S6S(b1-4)GlcNAc,-0.059
same,glycan array binding signal (z-score),Gal6P(b1-4)GlcNAc,-0.185
same,glycan array binding signal (z-score),Gal6S(b1-3)GlcNAc,0.424
same,glycan array binding signal (z-score),Gal6S(b1-3)GlcNAc6S,2.66
same,glycan array binding signal (z-score),Gal6S(b1-4)Glc,-0.06
same,glycan array binding signal (z-score),Gal6S(b1-4)Glc6S,0.253
same,glycan array binding signal (z-score),Gal6S(b1-4)GlcNAc,-0.332
same,glycan array binding signal (z-score),Gal6S(b1-4)GlcNAc6S,1.66
same,glycan array binding signal (z-score),GalNAc(a1-3)Gal,-0.255
same,glycan array binding signal (z-score),GalNAc(a1-3)GalNAc,-0.188
same,glycan array binding signal (z-score),[9],-0.677
same,glycan array binding signal (z-score),[10],-0.647
same,glycan array binding signal (z-score),[11],0.449
same,glycan array binding signal (z-score),GalNAc(b1-3)Gal,-0.175
same,glycan array binding signal (z-score),[12],0.096
same,glycan array binding signal (z-score),[13],-0.571
same,glycan array binding signal (z-score),[14],-0.479
same,glycan array binding signal (z-score),GalNAc(b1-3)GalNAc,0.367
